Measured values taken from publication PMC4336329 (PLoS ONE, 2015).
In all, about 310,000 compounds went through this assay and about 14,000 (4.5%) showed an effect of 50% or more. Effects have a minus sign here. Some of the results follow.

Each compound was assayed against human ether-à-go-go-related gene (hERG) potassium channel (human, UniProt Q12809) (assay: primary screen, population patch clamp on CHO cells stably expressing hERG).
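Note: peak tail current of the secondary pulse compared with the same well before compound.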

human ether-à-go-go-related gene (hERG) potassium channel, sequence (Q12809 whole entry, looked up): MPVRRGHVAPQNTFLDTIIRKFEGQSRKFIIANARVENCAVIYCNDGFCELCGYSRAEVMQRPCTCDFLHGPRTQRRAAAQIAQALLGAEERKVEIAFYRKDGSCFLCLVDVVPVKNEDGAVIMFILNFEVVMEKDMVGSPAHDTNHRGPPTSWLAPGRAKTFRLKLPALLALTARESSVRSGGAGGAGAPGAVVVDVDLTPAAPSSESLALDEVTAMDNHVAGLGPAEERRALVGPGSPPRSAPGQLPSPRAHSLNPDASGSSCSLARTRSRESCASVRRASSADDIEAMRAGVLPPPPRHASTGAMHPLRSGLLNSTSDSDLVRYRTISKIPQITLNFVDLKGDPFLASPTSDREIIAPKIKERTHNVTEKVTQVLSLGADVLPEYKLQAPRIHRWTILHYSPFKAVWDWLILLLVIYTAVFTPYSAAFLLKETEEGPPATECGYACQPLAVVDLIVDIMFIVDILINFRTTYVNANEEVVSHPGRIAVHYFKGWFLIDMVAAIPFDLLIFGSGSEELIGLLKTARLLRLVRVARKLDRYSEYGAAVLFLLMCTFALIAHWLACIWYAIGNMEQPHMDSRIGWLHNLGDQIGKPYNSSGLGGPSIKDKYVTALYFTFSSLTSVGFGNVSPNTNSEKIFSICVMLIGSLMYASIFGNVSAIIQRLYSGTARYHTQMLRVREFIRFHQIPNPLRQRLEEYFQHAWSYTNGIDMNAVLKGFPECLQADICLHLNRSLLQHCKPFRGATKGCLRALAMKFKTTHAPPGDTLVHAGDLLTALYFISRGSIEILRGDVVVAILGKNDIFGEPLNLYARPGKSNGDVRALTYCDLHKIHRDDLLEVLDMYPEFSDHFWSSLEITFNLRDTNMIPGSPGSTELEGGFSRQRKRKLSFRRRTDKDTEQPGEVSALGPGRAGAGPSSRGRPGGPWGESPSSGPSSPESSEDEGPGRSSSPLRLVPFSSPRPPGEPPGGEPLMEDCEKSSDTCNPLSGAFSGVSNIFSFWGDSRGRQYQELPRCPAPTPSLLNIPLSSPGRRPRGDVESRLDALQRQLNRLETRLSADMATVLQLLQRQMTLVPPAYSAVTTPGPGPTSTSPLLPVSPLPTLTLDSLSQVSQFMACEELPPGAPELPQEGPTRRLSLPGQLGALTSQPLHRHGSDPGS

Structure (SMILES) | hERG current change (%, negative = inhibition) at 10uM
CCN1C[C@]2(CO)CC[C@H](OC)[C@@]34C5C[C@H]6[C@H](OC)C5[C@](O)(C[C@H]6OC)[C@@H](C(OC)C23)[C@@H]14 (stereo partly drawn) | 2.04%
Cc1nn(CC(=O)NCCc2ccco2)c(=O)c2nn(-c3ccccc3)c(C)c12 | 5.5%
O=C(Nc1ccccc1N1CCOCC1)c1cccc(S(=O)(=O)N2CCOCC2)c1 | -30.5%
COc1cccc(NS(=O)(=O)c2ccc3[nH]cc(C(=O)NCCCOC(C)C)c(=O)c3c2)c1 | 11.5%
COc1cc(C(=S)N2CCN(C(c3ccccc3)c3ccccc3)CC2)cc(OC)c1O | 24.3%
Cc1ccc(/C(N)=N/OC(=O)C(C)c2ccc([N+](=O)[O-])cc2)cc1 (stereo not drawn) | -4.62%
CCCCc1ccc(/C=C2\C(=O)ON=C2c2ccccc2)s1 | 33.3%
CCCCC(C(=O)OCC(=O)c1ccc(OC)cc1)N1C(=O)c2ccccc2C1=O (stereo not drawn) | 3.96%
C=CCNC(=O)c1ccc2nc(Cc3ccc(OC)cc3)oc2c1 | 6.74%
Cc1ccc(Nc2cc(C)nc3ccccc23)c(C)c1 | -42.8%
CCn1c(CC(=O)Nc2ccccc2C)nnc1SCC(=O)Nc1nncs1 | 17.3%
COc1ccc(S(=O)(=O)NCCc2nnc3ccc(SCC(=O)Nc4nc(C)cs4)nn23)cc1 | 25.3%
CC(C)(C)c1cc(NC(=O)c2cccs2)no1 | 6.66%
Cc1ccccc1-c1noc(C(C)NC(=O)c2ccco2)n1 (stereo not drawn) | 8.48%
C/C(CC1(O)C(=O)Nc2ccccc21)=N\O (stereo not drawn) | 26.8%
COc1ccc(NC(=O)Cn2ncn3nc(-c4ccc(OC)cc4)cc3c2=O)cc1 | 18.4%
CN1CC(=O)N(CC(=O)NCc2ccc(F)cc2)c2ccccc2C1=O | 9.9%
O=C(NCCOc1ccccc1)C1Nc2ccc(OC(F)(F)F)cc2C2C=CCC12 (stereo not drawn) | -11%
COc1ccc(C(=O)NNC(=O)c2cc3cccc(OC)c3oc2=O)cc1 | 14.1%
COc1ccc(C(=O)NCCCN=C2NS(=O)(=O)c3ccccc32)cc1 | 18.6%
O=C(NCc1ccco1)Nc1ccc(Br)cc1Cl | -44%
CCC(C)(C)NC(=O)C(c1ccc(C)cc1)N(Cc1cccnc1)C(=O)c1csnn1 (stereo not drawn) | -8.91%
COc1cc([N+](=O)[O-])ccc1NC(=O)Nc1ccc2c(c1)OCCO2 | 25.3%

Structure (SMILES) | hERG current change (%, negative = inhibition) at 10uM
Cc1[nH]n(-c2ccccc2)c(=O)c1C(=O)c1cccc(F)c1 | 22.5%
O=C(CN1CCN(c2ccccn2)CC1)Nc1ccccc1 | -9.4%
CCc1ccccc1NC(=O)C1=CC(c2cccs2)=NS(=O)(=O)N1C | -8.42%
CC(=O)NCCc1csc(-c2ccccc2)n1 | 7.78%
CCN(CC)c1ccc(S(=O)(=O)N2CCOCC2)cc1NS(C)(=O)=O | 23%
Cc1ccc(C(=O)OCC(=O)Nc2ccc3[nH]c(=O)[nH]c3c2)cc1[N+](=O)[O-] | 3.1%
COc1ccc(-c2cccc(C3CC=CC4C3C(=O)N(Cc3ccccc3)C4c3ccc4ccccc4c3)c2)cc1 (stereo not drawn) | 11.1%
Cc1cc(=O)[nH]c(NN=C(CC(C)C)CC(C)C)n1 | 2.8%
CCOC1CS(=O)(=O)CC1OCC (stereo not drawn) | 8.36%
O=C(CSc1nc(=O)n2ccccc2n1)Nc1cccc2ccccc12 | -10.4%
O=S(=O)(Cc1ccccc1)Oc1ccccc1 | -33.8%
CCCCNC(=O)N1CCOCCOCCN(C(=O)NCCCC)CCOCC1 | -18.6%
CN(C)c1ccc(/C=C/C(=O)c2c(O)c3ccccc3oc2=O)cc1 | 5.85%
CN(Cc1cccs1)C(=O)CSc1nnnn1C | 2.42%
CCCCSc1nc(O)c(C2OC(=O)c3c2ccc(OC)c3OC)c(=O)n1-c1ccccc1 (stereo not drawn) | 17%
COc1ccc(N(CC(=O)NC2CCCC2)C(=O)Cn2nnc(-c3ccc(OC)c(OC)c3)n2)c(OC)c1 | -40.8%
Cc1nc(CS(=O)(=O)c2ccccn2)sc1C(=O)NNC(=O)c1ccc(Cl)cc1 | -1.57%
NC(=O)c1ccc(NC(=O)C2CCCC2)cc1 | 16.7%
CC(C)Oc1ccc2nnnn2n1 | 9.77%
Cc1cc2c(nn1)CCc1nonc1-2 | 4.93%
Clc1ccc(Cn2nnc3ccccc32)cc1 | 8.43%
Cc1cc(C)nc(SCc2csc(N)n2)n1 | 6.03%
